A lower IC50 marks a more sensitive line; a limit (>, <) means that the fit lies beyond the doses tested. For AUC the same curve is integrated over the 256-fold range of doses and scaled to a fraction; it is 1 without any effect and falls as sensitivity rises. An inferred top dose was derived from the fitted curves, not read from the paper.
How the values were obtained:
Assay in all cases: Viability of human cancer cell lines after 72 h of drug (GDSC screen)
CH5424802 = compound: CCc1cc2c(cc1N1CCC(N3CCOCC3)CC1)C(C)(C)c1[nH]c3cc(C#N)ccc3c1C2=O [CH5424802]; conditions: top dose 5.12 µM; top dose inferred
Procedure: (§1)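 Human cancer cell lines in 384-well plates, medium with 10% serum, drug for 72 h over a 256-fold dose range (nine 2-fold or five 4-fold steps up to the top dose). Adherent lines were fixed and stained with the nucleic acid dye Syto60, suspension lines read with resazurin; signal relative to control wells, capped at 0 and 100%. One two-parameter sigmoid per drug and line, fitted in a mixed model over all curves with the slope shared within a line.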

CAY10603 = compound: CC(C)(C)OC(=O)Nc1ccc(-c2cc(C(=O)NCCCCCCC(=O)NO)no2)cc1 [CAY10603]; conditions: top dose 20 µM; top dose inferred
Procedure: as §1

ACHP (KIN001-260) = compound: N#Cc1c(C2CCNCC2)cc(-c2c(O)cccc2OCC2CC2)nc1N [ACHP (KIN001-260)]; conditions: top dose 20 µM; top dose inferred
Procedure: as §1

Cell Line	AUC (CH5424802)	IC50 (CH5424802)	AUC (CAY10603)	IC50 (CAY10603)	AUC (ACHP (KIN001-260))	IC50 (ACHP (KIN001-260))
SW954 (urogenital system, adherent)	0.981	> 5.12 µM	0.356	0.498 µM	0.952	> 20 µM
OCUM-1 (stomach, adherent)	0.985	> 5.12 µM	0.982	> 20 µM	0.987	> 20 µM
YAPC (pancreas, adherent)	0.979	> 5.12 µM	0.853	> 20 µM	0.984	> 20 µM
MZ7-mel (melanoma, adherent)	0.981	> 5.12 µM	0.328	0.406 µM	0.878	> 20 µM
CP66-MEL (melanoma, adherent)	0.979	> 5.12 µM	0.851	18.7 µM	0.977	> 20 µM
HOP-92 (large cell lung carcinoma, adherent)	0.984	> 5.12 µM	0.764	8.39 µM	0.984	> 20 µM
NCI-H2342 (lung adenocarcinoma, adherent)	0.974	> 5.12 µM	0.92	> 20 µM	0.971	> 20 µM
P12-ICHIKAWA (T-cell lymphoblastic leukaemia, suspension)	0.89	3.59 µM	0.183	0.192 µM	0.973	> 20 µM
PL18 (pancreas, adherent)	0.985	> 5.12 µM	0.684	4.06 µM	0.983	> 20 µM
MC-IXC (neuroblastoma, adherent)	0.996	> 5.12 µM	0.34	0.51 µM	0.996	> 20 µM
Saos-2 (osteosarcoma, adherent)	0.981	> 5.12 µM	0.981	> 20 µM	0.981	> 20 µM
NCI-H661 (large cell lung carcinoma, adherent)	0.969	> 5.12 µM	0.456	0.926 µM	0.982	> 20 µM
CAL-51 (breast, adherent)	0.989	> 5.12 µM	0.922	> 20 µM	0.991	> 20 µM
YKG-1 (glioma, adherent)	0.981	> 5.12 µM	0.569	1.93 µM	0.985	> 20 µM
KMS-12-BM (myeloma, suspension)	0.991	> 5.12 µM	0.321	0.438 µM	0.853	11.6 µM
RD (rhabdomyosarcoma, adherent)	0.972	> 5.12 µM	0.452	0.915 µM	0.963	> 20 µM
KYSE-180 (oesophagus, adherent)	0.986	> 5.12 µM	0.579	2.03 µM	0.945	> 20 µM
BC-3 (B-cell lymphoma, suspension)	0.973	> 5.12 µM	0.383	0.618 µM	0.918	> 20 µM

Source: the supplement of paper PMC4967469
